This is an account of results in the supplement of paper PMC8728848.

The other results are listed elsewhere or left out.

Holding throughout (experiment): glycan array binding signal (z-score within array); higher = stronger binding
Common to all, as to settings: glycan notation: IUPAC condensed, linker removed

The target of experiment [1] is Gal(b1-3)GlcNAc(b1-3)Gal(b1-4)GlcNAc(b1-2)[Gal(b1-3)GlcNAc(b1-3)Gal(b1-4)GlcNAc(b1-6)]Man(a1-6)[Gal(b1-3)GlcNAc(b1-3)Gal(b1-4)GlcNAc(b1-2)Man(a1-3)]Man(b1-4)GlcNAc(b1-4)[Fuc(a1-6)]GlcNAc. In short, it runs like this:
(§1)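 Glycan array binding is given as a within-array Z-score, which can be read as non-binding when negative. The arrays, 3228 of them, came from the Consortium for Functional Glycomics database and were retained only where the protein sequence was available. Z-scores were averaged across arrays of the same protein sequence at different concentrations or buffers and across linkers.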

Experiment [2] addresses Gal(b1-3)GlcNAc(b1-3)Gal(b1-4)GlcNAc(b1-3)Gal(b1-4)GlcNAc(b1-2)[Gal(b1-3)GlcNAc(b1-3)Gal(b1-4)GlcNAc(b1-3)Gal(b1-4)GlcNAc(b1-6)]Man(a1-6)[Gal(b1-3)GlcNAc(b1-3)Gal(b1-4)GlcNAc(b1-3)Gal(b1-4)GlcNAc(b1-2)Man(a1-3)]Man(b1-4)GlcNAc(b1-4)[Fuc(a1-6)]GlcNAc. A digest of the protocol: as §1
The target of experiment [3] is Gal(b1-3)GlcNAc(b1-3)Gal(b1-4)GlcNAc(b1-6)[Gal(b1-3)GlcNAc(b1-3)]Gal(b1-4)Glc. A digest of the protocol: as §1
Experiment [4] deals with Gal(b1-3)GlcNAc(b1-3)Gal(b1-4)[Fuc(a1-3)]GlcNAc. In short, it runs like this: as §1
The target in experiment [5] is Gal(b1-3)GlcNAc(b1-3)Gal(b1-4)[Fuc(a1-3)]GlcNAc(b1-6)[Gal(b1-3)GlcNAc(b1-3)]Gal(b1-4)Glc. A digest of the protocol:
as §1

For experiment [6], the target named is Gal(b1-3)GlcNAc(b1-3)GalNAc. A digest of the protocol: as §1
In experiment [7] the target is Gal(b1-3)GlcNAc(b1-6)Gal(b1-4)GlcNAc. In short, it runs like this:
as §1

For experiment [8], the target named is Gal(b1-3)GlcNAc(b1-6)GalNAc. In short, it runs like this:
as §1

The target of experiment [9] is Gal(b1-3)GlcNAc(b1-6)[Gal(b1-3)]GalNAc. In short, it runs like this: as §1
The next experiment has as its target Gal(b1-3)GlcNAc6S. A digest of the protocol:
as §1

For experiment [10], the target named is Gal(b1-3)[Fuc(a1-4)]GlcNAc. In short, it runs like this: as §1
Experiment [11] deals with Gal(b1-3)[Fuc(a1-4)]GlcNAc(b1-2)Man. A digest of the protocol:
as §1

Experiment [12] deals with Gal(b1-3)[Fuc(a1-4)]GlcNAc(b1-2)Man(a1-3)[Gal(b1-3)[Fuc(a1-4)]GlcNAc(b1-2)Man(a1-6)]Man(b1-4)GlcNAc(b1-4)[Fuc(a1-6)]GlcNAc. A digest of the protocol: as §1
Experiment [13] deals with Gal(b1-3)[Fuc(a1-4)]GlcNAc(b1-3)Gal(b1-3)[Fuc(a1-4)]GlcNAc. A digest of the protocol: as §1
Experiment [14] has as its target Gal(b1-3)[Fuc(a1-4)]GlcNAc(b1-3)Gal(b1-4)[Fuc(a1-3)]GlcNAc. A digest of the protocol: as §1
Experiment [15] has as its target Gal(b1-3)[Fuc(a1-4)]GlcNAc(b1-6)GalNAc. A digest of the protocol:
as §1

Experiment [16] addresses Gal(b1-3)[GlcNAc(b1-6)]GalNAc. In short, it runs like this: as §1
In experiment [17] the target is Gal(b1-3)[Neu5Ac(a2-6)]GalNAc. A digest of the protocol: as §1
Experiment [18] addresses Gal(b1-3)[Neu5Ac(a2-6)]GlcNAc(b1-4)Gal(b1-4)Glc. In short, it runs like this: as §1
The target of experiment [19] is Gal(b1-3)[Neu5Ac(b2-6)]GalNAc. A digest of the protocol:
as §1

Another experiment deals with Gal(b1-4)Gal. A digest of the protocol: as §1
In experiment [20] the target is Gal(b1-4)GalNAc(a1-3)[Fuc(a1-2)]Gal(b1-4)GlcNAc. In short, it runs like this: as §1
Experiment [21] has as its target Gal(b1-4)GalNAc(b1-3)[Fuc(a1-2)]Gal(b1-4)GlcNAc. A digest of the protocol: as §1

B1: Epa10 (protein)
chain: MNEKIFRYLTLLFLFELARSLPVEDKLNIKKVFEKRAVDFTPFAHYPRPEGCSSPPNSVSVGLHMNLYNYPYLYVKPSTKGMFTNDTNSDADGETDGDSAGGIEGRAGQCWNPEYQDPNFPRFGYKQYGEFGASDNVNGDISWDHNEFTEGCKPVLAALPPGYNYPDEITFSNFTMVLSGYFKPKTSGVYKFELKADDFILFNFGAKNAFECCNREESIDNFGPYVAYAMWPNQADQELEVYLFEDSYYPLRLFYNNRDYHSKFKIGFYPPGQTTITFDFDGYLFMLDDTGNECRDSIRYRTVCDDKVVDDTTYSTRYSTSMVPGGGSDVITIYYIRMKCEEEDCLGQWDPINNVCYSPDDCADDGGYWNGQMCDQSCKLEGGIVNPDTGDCDKSCIESGGFLDENGNCDTTCRDDGGMLVEGQCDYQCKEAGGILVGDHCDTTCVDSGGKLNEDGTCDHSCRDQGGQLDENGECDTSCKDSGGMLIEGECDTSCKDEGGQLDDNNECINHCKDQGGIIDENGNCDTSCKDSGGKLDESGACDTSCRDDGGIIDENGNCNTTCRDDGGIIVGDHCDTSCRDAGGILIEDHCDTTCRDSGGKLNEDGTCDHSCRDQGGQLDENGKCDYSCKNGGGKLDEDGNCDMSCKENGGKLDENGDCDLSCKEDGGKLDGNGDCDYSCKEEGGVIDESGNCNTTCKDSGGQIIDGECNYGCIEVGGVVIDGECDTSCIDSGGILDGDGNCDRSCIESGGVLEDGACNTTCRDSGGQLNVDGTCDTSCRDDGGMLVEGQCDYQCKEAGGILEDGECVFPPTSSSTSETSSTTDQSSLQSDDSSMESSSTPMDSSTIESSSSEIITSESESESVPIASSSSEVMTSESESESIPILTSSSEIPIASSSSEIPVASSSSEIIIPESESESVPVASSSSEIPIASSSSEIPVASSSSEIPVASSSSEIIIPESESESIPIESTSSEAVSSRSESDSSYPTPTPTTTTITTWPNPIQPTTSNSSPIVSSSTETPGIAESSSRISDLESSRRTSILGDDRTRTRTTITSTITEDGQIITITTTVTGFVPEPTGETEGNGSDDENPENPIENNTDENEFLDPEFTDDIPDDPAGPEDNGNGPVNPEQGNDNDPVNLEDSGNNGAVNPEQAPVNDEDNGGNDPVNPEQDNNNGPANPGQDSTNGSGNSDQIDNNPPTPEENAGDGNSNGNDPADPSRRTSILGDERTRASPGGTSQPTGANGNVNGNSPGANVNGGGTGNSNNNNNNNNNNNNGNAPNGGDGSNGDANQGPSRRTSLLGDERTRAGQAAPTGGSSPDNGIAGDTSNNGGAIVSQQVDDGGAGSPRRTSILGDVRSRTTLNGEVLNFEGSGVRRAVAGNLALPLMMVGLVFNL
On to B1, for which the “glycan array binding signal (z-score)” value in experiment [1] is 0.014; in experiment [2], 0.117; in [3], -0.01; in [4] it was -0.085; in experiment [5], -0.085; in [6] it was -0.205. The “glycan array binding signal (z-score)” value in [7] is -0.051; in [8], -0.264; in [9], 1.13; with Gal(b1-3)GlcNAc6S, -0.184; in [10], -0.264; in experiment [11] it was -0.084. Also, the “glycan array binding signal (z-score)” value in experiment [12] was -0.098; in [13] it was -0.101; in experiment [14], -0.254; in [15], -0.148; in experiment [16] it was 1.89; in [17] it was 3.73. In addition, the “glycan array binding signal (z-score)” value in experiment [18] was -0.23; in experiment [19], 0.847; with Gal(b1-4)Gal it was -0.235; in [20], -0.313; in experiment [21], -0.215.
